Reference: patent publication US20190322765A1 (Hoffmann-La Roche, published 2019)

T1: murine IL-2R βγ heterodimer (β knob γ hole Fc fusion) (murine, UniProt P16297 27-240; P34902 23-263)
T1 construct: also called Mu IL-2R βγ; mouse IL-2R βγ heterodimer; not shown: Fc knob/hole part
T1 sequence (looked up) 1: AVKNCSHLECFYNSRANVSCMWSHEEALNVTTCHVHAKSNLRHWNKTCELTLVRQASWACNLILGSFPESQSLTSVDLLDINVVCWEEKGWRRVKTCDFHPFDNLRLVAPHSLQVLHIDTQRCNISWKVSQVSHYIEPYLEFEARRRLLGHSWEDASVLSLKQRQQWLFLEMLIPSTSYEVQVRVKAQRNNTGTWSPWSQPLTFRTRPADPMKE
T1 sequence (looked up) 2: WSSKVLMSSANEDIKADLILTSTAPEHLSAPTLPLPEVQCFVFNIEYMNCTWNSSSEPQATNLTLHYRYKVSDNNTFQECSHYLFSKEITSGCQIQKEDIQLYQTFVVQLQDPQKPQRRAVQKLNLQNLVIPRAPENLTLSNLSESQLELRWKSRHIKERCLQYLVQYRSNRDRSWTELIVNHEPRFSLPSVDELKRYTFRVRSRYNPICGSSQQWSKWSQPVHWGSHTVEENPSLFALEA

T2: CD25 on human T cells (activated T cells, Treg cells) (human, UniProt P01589 22-272)
T2 sequence (looked up): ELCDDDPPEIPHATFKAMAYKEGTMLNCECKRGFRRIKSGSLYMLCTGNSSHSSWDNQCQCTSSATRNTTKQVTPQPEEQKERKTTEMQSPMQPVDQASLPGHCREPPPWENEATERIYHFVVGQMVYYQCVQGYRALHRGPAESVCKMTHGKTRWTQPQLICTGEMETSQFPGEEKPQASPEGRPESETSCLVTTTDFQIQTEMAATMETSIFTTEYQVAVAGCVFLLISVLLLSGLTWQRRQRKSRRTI

T3: IL-2R βγ heterodimer on human cells (NK92 cells, NK and T cells of PBMC) (human, UniProt P14784 27-551; P31785 23-369)
T3 sequence (looked up) 1: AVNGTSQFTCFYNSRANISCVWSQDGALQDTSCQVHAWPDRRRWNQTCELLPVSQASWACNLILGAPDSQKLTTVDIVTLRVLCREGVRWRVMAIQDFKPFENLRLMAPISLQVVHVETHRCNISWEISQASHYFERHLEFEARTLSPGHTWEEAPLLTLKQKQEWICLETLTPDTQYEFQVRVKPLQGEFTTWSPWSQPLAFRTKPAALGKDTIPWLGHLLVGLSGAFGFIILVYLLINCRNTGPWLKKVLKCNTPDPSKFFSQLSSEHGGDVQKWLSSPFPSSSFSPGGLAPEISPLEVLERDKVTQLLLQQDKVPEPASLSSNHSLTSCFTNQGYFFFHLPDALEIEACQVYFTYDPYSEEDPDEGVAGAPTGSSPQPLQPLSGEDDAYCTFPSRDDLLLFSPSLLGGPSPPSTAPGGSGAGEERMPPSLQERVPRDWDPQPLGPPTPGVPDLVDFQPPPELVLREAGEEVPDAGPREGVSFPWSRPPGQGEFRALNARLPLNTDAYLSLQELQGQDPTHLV
T3 sequence (looked up) 2: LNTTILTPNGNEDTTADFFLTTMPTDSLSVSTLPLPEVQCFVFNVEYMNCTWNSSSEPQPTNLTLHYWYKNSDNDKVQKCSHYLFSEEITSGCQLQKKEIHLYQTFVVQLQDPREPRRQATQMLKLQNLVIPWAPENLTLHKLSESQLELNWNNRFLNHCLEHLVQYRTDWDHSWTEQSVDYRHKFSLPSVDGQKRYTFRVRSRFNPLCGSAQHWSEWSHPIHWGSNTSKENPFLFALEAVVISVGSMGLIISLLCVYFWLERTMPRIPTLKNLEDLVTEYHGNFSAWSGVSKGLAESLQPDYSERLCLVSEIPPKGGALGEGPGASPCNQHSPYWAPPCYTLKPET

T4: cynomolgus IL-2R α-subunit, recombinant monomeric (cynomolgus, UniProt H6WS54 22-240)
T4 construct: also called Cyno IL-2R α
T4 sequence: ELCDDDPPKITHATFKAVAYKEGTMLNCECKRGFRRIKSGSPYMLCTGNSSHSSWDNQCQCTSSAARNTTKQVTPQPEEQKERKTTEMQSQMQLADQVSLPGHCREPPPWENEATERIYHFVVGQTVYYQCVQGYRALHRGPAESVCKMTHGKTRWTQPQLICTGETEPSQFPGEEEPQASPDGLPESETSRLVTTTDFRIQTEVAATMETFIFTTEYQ

T5: human IL-2R α-subunit, monomeric, with AcTev cleavage site and Avi His tag (human)
T5 construct: also called Hu IL-2R α; CD25
T5 chain: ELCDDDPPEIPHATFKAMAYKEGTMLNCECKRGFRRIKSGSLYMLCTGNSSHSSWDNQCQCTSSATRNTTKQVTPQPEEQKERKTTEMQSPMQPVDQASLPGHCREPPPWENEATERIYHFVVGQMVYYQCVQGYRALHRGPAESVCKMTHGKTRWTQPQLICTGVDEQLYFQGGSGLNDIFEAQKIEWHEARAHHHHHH

T6: murine IL-2R α-subunit, recombinant monomeric (murine, UniProt P01590 22-236, limits assumed)
T6 construct: also called Mu IL-2R α
T6 sequence (looked up): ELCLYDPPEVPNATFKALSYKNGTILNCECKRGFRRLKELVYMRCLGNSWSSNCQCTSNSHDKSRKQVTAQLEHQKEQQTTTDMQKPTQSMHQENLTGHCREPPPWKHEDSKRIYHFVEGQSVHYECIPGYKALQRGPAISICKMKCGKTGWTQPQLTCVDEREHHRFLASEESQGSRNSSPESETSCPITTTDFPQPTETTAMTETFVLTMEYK


Experiments:
[1] = biological target: T7, human IL-2R βγ heterodimer, subunit-Fc knobs-into-holes fusion (human); assay: SPR, receptor on CM5, 37°C, 1:1 fit
T7 construct: The entries may hold a leader peptide; also called Hu IL-2R βγ; human IL2-R β knob γ hole heterodimer

[2] = biological target: T1, murine IL-2R βγ heterodimer (β knob γ …); assay: SPR, receptor on CM5, 37°C, 1:1 fit
[3] = biological target: T8, cynomolgus IL-2R βγ heterodimer (β knob γ hole Fc fusion) (cynomolgus); assay: SPR, receptor on CM5, 37°C, 1:1 fit
T8 construct: also called Cyno IL-2R βγ

[4] = biological target: T2, CD25 on human T cells (activated T …); assay: cell-based or functional assay
[5] = biological target: T3, IL-2R βγ heterodimer on human cells …; assay: cell-based or functional assay
[6] = biological target: T4, cynomolgus IL-2R α-subunit, recombinant …; assay: SPR, receptor on CM5, 37°C, 1:1 fit
[7] = biological target: T5, human IL-2R α-subunit, monomeric, with …; assay: SPR, receptor on CM5, 37°C, 1:1 fit
[8] = biological target: T6, murine IL-2R α-subunit, recombinant …; assay: SPR, receptor on CM5, 37°C, 1:1 fit
[9] = biological target: T9, human FAP expressed on stably transfected HEK293 cells (human, UniProt Q12884 1-760); assay: FACS on FAP-expressing HEK cells
T9 construct: whole, on cells

[10] = biological target: T4, cynomolgus IL-2R α-subunit, recombinant …; assay: SPR, receptor on CM5, 25°C, 1:1 fit
[11] = biological target: T5, human IL-2R α-subunit, monomeric, with …; assay: SPR, receptor on CM5, 25°C, 1:1 fit
[12] = biological target: T6, murine IL-2R α-subunit, recombinant …; assay: SPR, receptor on CM5, 25°C, 1:1 fit
[13] = biological target: T7, human IL-2R βγ heterodimer, subunit-Fc …; assay: SPR, receptor on CM5, 25°C, 1:1 fit
[14] = biological target: T1, murine IL-2R βγ heterodimer (β knob γ …); assay: SPR, receptor on CM5, 25°C, 1:1 fit
[15] = biological target: T8, cynomolgus IL-2R βγ heterodimer (β knob …); assay: SPR, receptor on CM5, 25°C, 1:1 fit
[16] = biological target: T5, human IL-2R α-subunit, monomeric, with …; assay: SPR, receptor on CM5, 25°C, steady state
[17] = biological target: T7, human IL-2R βγ heterodimer, subunit-Fc …; assay: SPR, receptor on CM5, 25°C, kinetic
[18] = biological target: T5, human IL-2R α-subunit, monomeric, with …; assay: SPR, receptor on CM5, 25°C, kinetic

Binder	Kd [1]	Kd [2]	Kd [3]	EC50 of STAT5 phosphorylation, Treg cells [4] [nM]	EC50 of STAT5 phosphorylation, CD8+ T cells [5] [nM]	EC50 of STAT5 phosphorylation, NK cells [5] [nM]	Kd [6]	Kd [7]	Kd [8]	EC50 [9] [nM]	Kd [10]	Kd [11]	Kd [12]	Kd [13]	Kd [14]	Kd [15]	Kd [16]	Kd [17]	Kd [18]
28H1 Fab-IL-2 wt-Fab (other, also called 28H1 Fab-IL-2-Fab; FAP 28H1 wt) heavy: EVQLLESGGGLVQPGGSLRLSCAASGFTFSSHAMSWVRQAPGKGLEWVSAIWASGEQYYADSVKGRFTISRDNSKNTLYLQMNSLRAEDTAVYYCAKGWLGNFDYWGQGTLVTVSSASTKGPSVFPLAPSSKSTSGGTAALGCLVKDYFPEPVTVSWNSGALTSGVHTFPAVLQSSGLYSLSSVVTVPSSSLGTQTYICNVNHKPSNTKVDKKVEPKSCDSGGGGSGGGGSGGGG[no letters for about 150 residues]SGGGGSGGGGSGGGGEVQLLESGGGLVQPGGSLRLSCAASGFTFSSHAMSWVRQAPGKGLEWVSAIWASGEQYYADSVKGRFTISRDNSKNTLYLQMNSLRAEDTAVYYCAKGWLGNFDYWGQGTLVTVSSASTKGPSVFPLAPSSKSTSGGTAALGCLVKDYFPEPVTVSWNSGALTSGVHTFPAVLQSSGLYSLSSVVTVPSSSLGTQTYICNVNHKPSNTKVDKKVEPKSCD light: EIVLTQSPGTLSLSPGERATLSCRASQSVSRSYLAWYQQKPGQAPRLLIIGASTRATGIPDRFSGSGSGTDFTLTISRLEPEDFAVYYCQQGQVIPPTFGQGTKVEIKRTVAAPSVFIFPPSDEQLKSGTASVVCLLNNFYPREAKVQWKVDNALQSGNSQESVTEQDSKDSTYSLSSTLTLSKADYEKHKVYACEVTHQGLSSPVTKSFNRGEC	19 nM and 22 nM	186 nM and 219 nM	29.2 nM and 30.4 nM	0.015	14.5	3.32	36.5 nM and 35.6 nM	28.8 nM and 28.2 nM	67.5 nM and 61.1 nM	0.64	16 nM and 16.2 nM	16 nM and 16.2 nM	43.3 nM and 44 nM	9.7 nM and 9 nM	112 nM and 79 nM	11.5 nM and 11.6 nM			
MHLG1-KV9 Fab-IL-2 wt-Fab (other, also called MCSP-targeted MHLG1-KV9 Fab-IL-2 wt-Fab) heavy: EVQLVESGGGLVKPGGSLRLSCAASGFTFSNYWMNWVRQAPGKGLEWVAEIRLKSNNFGRYYAASVKGRFTISRDDSKNTLYLQMNSLKTEDTAVYYCTTYGNYVGHYFDHWGQGTTVTVSSASTKGPSVFPLAPSSKSTSGGTAALGCLVKDYFPEPVTVSWNSGALTSGVHTFPAVLQSSGLYSLSSVVTVPSSSLGTQTYICNVNHKPSNTKVDKKVEPKSCDSGGGGSGGGGSGGGG[no letters for about 150 residues]SGGGGSGGGGSGGGGEVQLVESGGGLVKPGGSLRLSCAASGFTFSNYWMNWVRQAPGKGLEWVAEIRLKSNNFGRYYAASVKGRFTISRDDSKNTLYLQMNSLKTEDTAVYYCTTYGNYVGHYFDHWGQGTTVTVSSASTKGPSVFPLAPSSKSTSGGTAALGCLVKDYFPEPVTVSWNSGALTSGVHTFPAVLQSSGLYSLSSVVTVPSSSLGTQTYICNVNHKPSNTKVDKKVEPKSCD light: DIQLTQSPSFLSASVGDRVTITCKASQNVDTNVAWYQQKPGQAPRPLIYSASYRYTGVPSRFSGSGSGTEFTLTISSLQPEDFATYYCQQYNSYPLTFGGGTKVEIKRTVAAPSVFIFPPSDEQLKSGTASVVCLLNNFYPREAKVQWKVDNALQSGNSQESVTEQDSKDSTYSLSSTLTLSKADYEKHKVYACEVTHQGLSSPVTKSFNRGEC																	6.8 nM and 10.9 nM	8.6 nM and 9.8 nM	8.8 nM and 10.1 nM

“And” between values parts separate entries of the source, which are not always exact repeats. Equal entries are not always repeated.
